According to PubChem BioAssay AID652104 (National Center for Advancing Translational Sciences (NCATS), 2013):
In all, about 410,000 compounds went through this assay and about 7,200 (1.8%) were called active. This list was built around the results that the source calls inconclusive (neither active nor inactive); the mix of calls is not that of the screen. The call rests on the fitted dose curve; in most records, active means well fitted activation curve with a large enough effect; inconclusive means small, poorly fitted or top-dose-only effect, or another doubt; inactive means no such curve, though single readings can be large or run the other way. Potencies of inconclusive entries are left out as doubtful fits.
Potency means the concentration at half of the fitted maximal effect; tags describe the fitted curve by direction and shape.

Assay: qHTS of TDP-43 Inhibitors; further: nearly all actives have a fitted effect of over 50% in size; on growth rescue (activation): % of control where 0% means no effect
Conditions: TDP-43 expressing yeast growth rescue, BacTiter-Glo, 24 h; growth rescue (activation): at 46.1 µM (top of the series) unless noted
Method in brief: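 Growth rescue of TDP-43-toxic yeast measured as ATP luminescence (BacTiter-Glo). Cells grown to mid-log in raffinose, induced in galactose at OD600=0.02, exposed to compound 24 hr at 30 deg C.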
In the case of `c1ccc(OCCn2c(-c3ccco3)nc3ccccc32)cc1`, the Potency was inconclusive [activator, single point]. In the case of `CC(C)c1cccc(-c2csc(C(O)c3ccco3)n2)c1` (stereo not drawn), the Potency was inconclusive [activator, partial curve]. In the case of `CCn1cnc2scc(-c3ccc(C)c(C)c3)c2c1=O`, the Potency was inconclusive [activator, partial curve]. With `CCOC(=O)C1CCCN(C(=O)Cn2ncc3c(C)n(Cc4ccc(F)cc4)c(C)c3c2=O)C1` (stereo not drawn) the “growth rescue (activation)” value was inactive: 14.2%. For `c1ccc(-c2cc3nccc(-c4ccccn4)n3n2)cc1`, the Potency was inconclusive [activator, single point]. With `COc1cccc(-c2nn(C)c3sc(C(=O)NCCc4cccc(C)c4)cc23)c1` the Potency was inconclusive [activator, partial curve, poor fit]. In the case of `COC(=O)c1ccc(COc2ccc(C=O)cc2)o1`, the Potency was inconclusive [activator, full curve, poor fit]. In the case of `Cc1ccc(CCNC(=O)c2nn(C)c3c2CS(=O)(=O)c2ccccc2-3)cc1`, the Potency was inconclusive [activator, single point]. For `COC(=O)c1ccc2nc(-c3cccc(Br)c3)c(Cc3ccccc3OC)n2c1`, the Potency was inconclusive [activator, partial curve]. For `CC1CCCN(c2nc(-c3ccccc3O)nc3ccccc23)C1` (stereo not drawn), the Potency was active: 20 µM. In the case of `Cc1ccc(C(=O)Nc2nnc(S(=O)(=O)N(C)Cc3ccc(F)cc3)s2)cc1`, the “growth rescue (activation)” value was inactive: 13%. For `Cc1ccc(C(=O)N2CCN(c3ccc([N+](=O)[O-])c(NCc4ccco4)c3)CC2)cc1`, the Potency was inconclusive [activator, single point]. For `CCNc1nc(CSc2ccccc2)nc2sc(C)c(C)c12`, the Potency was inconclusive [activator, single point]. For `COC(=O)[C@@]12C[C@@H](CC(=O)NCCCCc3ccccc3)C(=O)N(CCc3ccc(OC)c(OC)c3)C1=CCC(C)(C)C2`, the Potency was inconclusive [activator, partial curve]. With `CCOc1ccc(-n2c(C)nc3cc(C(=O)NCc4ccc(C)cc4)ccc32)cc1` the Potency was inconclusive [activator, single point]. In the case of `COc1ccc(-n2ccnc(NCc3cccs3)c2=O)cc1`, the Potency was inconclusive [activator, single point]. In the case of `COc1cccc2c1O/C(=N\O)C(C(=O)Nc1cccc(C)c1C)C2` (stereo not drawn), the “growth rescue (activation)” value was inactive: -3.78%. In the case of `CCn1c(-c2csc3c2CCCC3)n[nH]c1=S`, the Potency was inconclusive [activator, partial curve]. With `O=C(NCCOc1ccccc1Cl)C(=O)c1c[nH]c2ccccc12` the Potency was active: 11.2 µM. For `O=S(=O)(Nc1cccc(-c2ccc3nncn3n2)c1)c1ccc(Cl)s1`, the “growth rescue (activation)” value was inactive: -2.97%. For `Cc1ccc(C(=O)Nc2ccc3ncccc3c2)cc1`, the “growth rescue (activation)” value was inactive: -24.8%. For `COc1ccc(/C=N/Nc2nc(-c3cccc(S(=O)(=O)N4CCCC4)c3)cs2)c(OC)c1`, the Potency was inconclusive [activator, partial curve, poor fit]. With `COc1ccc(CCNC(=O)CN2C(=O)COc3ccc(C)cc32)cc1OC` the “growth rescue (activation)” value was inactive: 14%. For `CCN(C(=O)Cn1nc(Cc2ccncc2)c2ccccc2c1=O)c1cccc(Cl)c1`, the “growth rescue (activation)” value was inactive: 22.2%. In the case of `O=C(c1cc(-c2cccc(Cl)c2)nc2ccccc12)N1CCN(c2ccccn2)CC1`, the “growth rescue (activation)” value was inactive: 4.38%. With `O=C(Cc1ccc(Cl)cc1)Oc1cccc2cccnc12` the growth rescue (activation) was inconclusive: -95.2% [activator]. In the case of `O=c1cc(CN2CCN(c3ccccc3F)CC2)c2c(ccc3ccccc32)o1`, the Potency was inconclusive [activator, partial curve]. In the case of `CCOC(=O)c1cc(-c2ccc(OC)c(S(=O)(=O)NC3CCCCC3)c2)on1`, the “growth rescue (activation)” value was inactive: 10.1%. In the case of `CCOc1ccc(NC(=S)NC(C)c2cccs2)cc1` (stereo not drawn), the Potency was inconclusive [activator, partial curve]. In the case of `CN1CCC2(CC1)N=C(c1ccc(F)cc1)C(=S)N2C(=O)c1ccc(C(C)(C)C)cc1`, the Potency was active: 20 µM. For `NS(=O)(=O)c1ccc(N2N=C(c3ccccc3)CC2c2ccccc2)cc1` (stereo not drawn), the Potency was inconclusive [activator, single point]. In the case of `COc1cc(N2C(=O)CSC23C(=O)N(Cc2cccc(F)c2)c2ccccc23)cc(OC)c1OC` (stereo not drawn), the “growth rescue (activation)” value was inactive: 10.8%. With `CC(C)(O)C#Cc1ccc(C(=O)N2CCN(c3ccc([N+](=O)[O-])cc3)CC2)cc1` the Potency was inconclusive [activator, single point]. For `COc1nc(NCc2ccco2)nc(NC2CCCCC2)n1`, the Potency was inconclusive [activator, single point]. For `Cc1cc(Nc2cccc(Cl)c2)nc2ccc(NC(=O)Cc3ccc(Cl)cc3)cc12`, the Potency was inconclusive [activator, single point]. With `Cc1cccc(NC(=O)COc2ccccc2C(=O)NC(C)c2ccccc2)c1` (stereo not drawn) the Potency was inconclusive [activator, single point]. With `COc1ccc(C(=O)/C=C/Nc2ccc(S(=O)(=O)Nc3cc(OC)nc(OC)n3)cc2)c(OC)c1` the Potency was inconclusive [activator, single point]. With `COc1cccc(/C=N/NC(=O)C[n+]2ccccc2)c1OC` the “growth rescue (activation)” value was inactive: -12.9%. In the case of `O=C(c1cc(-c2ccco2)nc2ccccc12)N1CCCC(C(F)(F)F)C1` (stereo not drawn), the Potency was active: 35.5 µM. With `CCCCC(=O)O[C@H]1CC[C@H]2[C@@H]3CCc4cc(O)ccc4[C@H]3CC[C@]12C` the Potency was inconclusive [activator, partial curve]. With `COc1ccccc1CNC(=O)c1cnc(N(C)C)nc1` the Potency was inconclusive [activator, partial curve]. In the case of `CC1(C)CC(=O)C(C(C2=C(O)CC(C)(C)CC2=O)c2ccc([N+](=O)[O-])cc2)C(=O)C1` (stereo not drawn), the Potency was inconclusive [activator, single point]. With `O=C(Cc1cnc2ncnn2c1)N1CCc2c([nH]c3ccccc23)C1c1ccccc1F` (stereo not drawn) the growth rescue (activation) was inactive: -10.4% [at 1.82 µM]. In the case of `FC(F)(F)c1cccc(NC(=S)NC2CCCC2)c1`, the Potency was inconclusive [activator, partial curve]. In the case of `COC(=O)c1c(/N=C/N(C)C)sc2c1CCN(c1ncc(C(F)(F)F)cc1Cl)C2`, the Potency was inconclusive [activator, single point]. With `O=S1(=O)C[C@@H](N2CCN(c3ccccc3)CC2)[C@H](COCc2ccccc2)N1` the Potency was inconclusive [activator, partial curve, poor fit]. For `O=C1CC(N2CCC(O)CC2)C(=O)N1c1ccc(Br)cc1` (stereo not drawn), the Potency was inconclusive [activator, partial curve]. With `O=C(Nc1ccc(Cl)c(-c2nc3ccccc3o2)c1)c1ccc(-c2cccc([N+](=O)[O-])c2)o1` the Potency was inconclusive [activator, partial curve]. With `CC(=O)Nc1cc2c3ccccc3ccc2c2ccccc12` the “growth rescue (activation)” value was inactive: 4.14%. With `CC(C)CCN(C(=S)Nc1cccc(C(F)(F)F)c1)C(C)c1ccccn1` (stereo not drawn) the Potency was inconclusive [activator, single point]. For `CCCc1cc(C(=O)Nc2sc(C)c(CC)c2C#N)no1`, the Potency was inconclusive [activator, full curve, poor fit]. In the case of `CC(NC(=O)c1cccc(NC(=O)c2nsc3ccccc23)c1)c1ccccc1` (stereo not drawn), the Potency was inconclusive [activator, partial curve, poor fit]. In the case of `CCC(C)Nc1nc(C)nc2c1oc1ccccc12` (stereo not drawn), the “growth rescue (activation)” value was inactive: 11.4%. With `O=C(COC(=O)c1cccc(F)c1)Nc1cccnc1Cl` the Potency was inconclusive [activator, single point]. In the case of `Cc1ccc(C)c(Cn2c(SCC(=O)N(C)Cc3ccccc3)nc3ccccc32)c1`, the Potency was inconclusive [activator, partial curve]. In the case of `CCCNC(=O)c1nnsc1S(=O)c1ccc(Cl)cc1` (stereo not drawn), the growth rescue (activation) was inconclusive: -92.6% [activator]. With `CN(C(=O)CSc1nc2ccc(NC(=O)CCc3ccccc3)cc2s1)c1ccccc1` the Potency was inconclusive [activator, partial curve]. For `CN(C)S(=O)(=O)c1ccc(NC(=O)Cn2c(-c3ccccc3)noc2=O)cc1`, the Potency was inconclusive [activator, single point]. For `Cc1nc(SCC(=O)c2cc(C)n(C3CC3)c2C)c2ccccc2n1`, the Potency was inconclusive [activator, full curve, poor fit]. For `C[C@@H]1Cn2cnc(C(=O)N[C@@H](C)C(=O)OC(C)(C)C)c2C(=O)N1`, the “growth rescue (activation)” value was inactive: 0%. For `OCCOCCn1c2ccccc2c2ccccc21`, the Potency was inconclusive [activator, single point]. With `Cc1cccc(C)c1OCc1cc(C(=O)N(C)Cc2cc(C3CC3)n[nH]2)no1` the Potency was inconclusive [activator, single point]. In the case of `O=C1C=CC(=O)N1c1ccc(OC(F)F)cc1`, the growth rescue (activation) was inconclusive: -92.4% [activator]. In the case of `CC1=C(C(=O)NCc2ccc(C)cc2)C2(CCCCC2)OC1=O`, the Potency was inconclusive [activator, full curve]. For `CC(C)c1cccc(C2=CC(=O)C[C@H](c3ccc(F)cc3)C2)c1`, the “growth rescue (activation)” value was inactive: 13.1%. For `O=C(CN1c2cccc3cccc(c23)S1(=O)=O)N1CCN(c2ccc(F)cc2)CC1`, the Potency was inconclusive [activator, single point]. For `CCc1nnc(NC(=O)c2cc3c(s2)CCCCC3)s1`, the Potency was inconclusive [activator, single point]. In the case of `CC(=O)Nc1ccc(S(=O)(=O)NC2(C(F)(F)F)C(=O)Nc3c2c(=O)[nH]c(=O)n3-c2ccc(C)c(C)c2)cc1` (stereo not drawn), the “growth rescue (activation)” value was inactive: 20.6%.
